# Laboratory results taken from PubChem BioAssay AID720542 (National Center for Advancing Translational Sciences (NCATS), 2013).
# The campaign covered roughly 360,000 compounds. About 740 (0.21%) were called active. Inconclusive results, whose numbers are uncertain, are shown with a selection of clear calls. Calls follow the shape of the dose curve; as a rule, active = well fitted inhibition curve with a large enough effect; inconclusive = small, poorly fitted or top-dose-only effect; inactive = no such curve, though single readings can be large or run the other way. No potency is given beside an inconclusive call; the fits are too rough.
# Tested on: Plasmodium falciparum AMA1 (3D7) - RON2 peptide interaction
# Test: qHTS for Inhibitors of AMA1-RON; Towards Development of Antimalarial Drug Lead: Primary Screen; also: nearly all actives have a fitted effect of over 45% in size;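 as to activity change, negative = inhibition: 0% = vehicle wells and -100% = peptide control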
# Conditions: AlphaScreen AMA1-biotinylated RON2 peptide binding; activity change, negative = inhibition: at 58.2 µM (top of the series) unless noted
# Outline: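 AMA1 (3D7) with his tag at 25 nM final met compounds first, then biotinylated RON2 peptide at 25 nM; detection used donor plus acceptor beads, 10 µg/mL apiece, read by AlphaScreen after 30 min at room temperature.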
# Potency is read from the fitted curve at half-maximal effect; tags tell the direction and shape of the fitted curve.
Structure (SMILES),Potency,"activity change, negative = inhibition"
CCn1cc([N+](=O)[O-])c(C(=O)Nc2nc3ccc(OC)cc3s2)n1,inactive,
CCOC(=O)c1c(O)c(O)c(C(=O)OCC)n1-c1ccccc1,,inconclusive: -33.7% [inhibitor]
Cc1ccccc1CSc1nnc(-c2ccccn2)n1N,"inconclusive [inhibitor, single point]",
COc1ccc(C(=S)N2CCN(c3cccc(Cl)c3)CC2)cc1,"inconclusive [inhibitor, partial curve]",
Cc1nn(C)cc1/C=N/NC(=S)Nc1ccc(Cl)cc1Cl,inactive,
CCc1nnc(NC(=O)c2cc(-c3ccco3)nc3ccccc23)s1,"inconclusive [inhibitor, full curve, poor fit]",
Cc1cc(C)c2c(N)c(C(=O)c3ccccc3Cl)sc2n1,inactive,
Cc1ccc(C)c(NC(=S)c2ccccn2)c1,"inconclusive [inhibitor, single point]",
CC1CCC2(CC1)NC(=O)N(CC(=O)N1CC(C)CC(C)C1)C2=O (stereo not given),"inconclusive [inhibitor, partial curve]",
O=C(NC(c1ccc(F)cc1)c1ccc2ccccc2n1)C1CCN(Cc2ccc3ccccc3n2)CC1 (stereo not given),"inconclusive [inhibitor, partial curve]",
Cc1ccc(C)c(N(CC(=O)NC2CCCC2)S(=O)(=O)c2ccccc2)c1,inactive,
CCN1C(c2ccccc2)=C(c2ccccc2)S/C1=C/C=C1\SC(=S)N(C)C1=O,"inconclusive [inhibitor, full curve]",
CCC(C)NC(=O)Cn1c(=O)sc2ccccc21 (stereo not given),"inconclusive [inhibitor, partial curve]",
O=C(NC12CC3CC(CC(C3)C1)C2)N(Cc1ccccc1)Cc1ccncc1,inactive,
CCCC(=O)Nc1ccc(NC(=O)C23CC4CC(CC(C4)C2)C3)cn1,"inconclusive [inhibitor, single point]",
N#Cc1nc(-c2cccs2)oc1N1CCN(c2ccccc2)CC1,"inconclusive [inhibitor, partial curve]",
CCN1/C(=C/c2ccc3ccccc3[n+]2CC)C=Cc2ccccc21,"inconclusive [inhibitor, partial curve]",
O=C(CSc1nnnn1Cc1ccccc1)NCC(=O)c1ccccc1,inactive,
COc1ccc(F)cc1S(=O)(=O)NCc1cc(=O)n(C)c(=O)n1C,inactive,
CC1CC(C)CN(C(=O)c2ccc3c(c2)N(Cc2ccccc2)CCS3)C1 (stereo not given),"inconclusive [inhibitor, single point]",
CC(=O)c1c(C)[nH]c(C(=O)OCC(=O)Nc2ccc(Cl)cc2[N+](=O)[O-])c1C,inactive,
COc1ccc2cc3cc(C(=O)N4CCN(Cc5ccc6c(c5)OCO6)CC4)oc3nc2c1,"inconclusive [inhibitor, partial curve]",
OCC1(CO)COC(c2cccnc2)N1 (stereo not given),,inconclusive: -0.466% [inhibitor]
Cc1cccc(C)c1-n1nnnc1C(c1ccccc1OC(F)(F)F)N1CCN(C/C=C/c2ccccc2)CC1 (stereo not given),"inconclusive [inhibitor, partial curve]",

Structure (SMILES),Potency,"activity change, negative = inhibition"
Cc1ccsc1C(=O)NC1CCCN(Cc2ccc(Cl)cc2)C1 (stereo not given),"inconclusive [inhibitor, single point]",
COc1ccc(OC)c(-c2nc(C(=O)NC3CCN(Cc4ccccc4)CC3)cc3c2[nH]c2ccccc23)c1,"inconclusive [inhibitor, partial curve]",
CCC(=O)n1nc(-c2ccc(OC)cc2)nc1SC,inactive,
O=C(O)/C=C(/c1ccccc1)C(F)(F)F,inactive,
Cc1ccc(C)c(N=Nc2nc3ccccc3n2C)c1,active: 10.6 µM,
CCC1COC(c2cccn2Cc2ccc(Cl)cc2)=N1 (stereo not given),,inconclusive: -30.3% [inhibitor]
O=C(CCn1c(=O)oc2ccccc21)Nc1ccc(N2CCOCC2)cc1,inactive,
COc1ccccc1NC(=O)COc1ccc(Br)cc1CO,inactive,
Cc1cc2nc3c(=O)[nH]c(=O)[nH]c3nc2c([N+](=O)[O-])c1N,"inconclusive [inhibitor, full curve]",
O=C(CN1CCCCCC1)Nc1ccc(Br)cc1[N+](=O)[O-],"inconclusive [inhibitor, partial curve]",
CCOC(=O)c1cnc2ccccc2c1Nc1ccc2c(c1)OCCO2,"inconclusive [inhibitor, partial curve]",
COc1ccc(/C=N/n2cnc3c(sc(=S)n3-c3ccccc3)c2=O)cc1,inactive,
COc1ccc(-c2nn(-c3ccccc3)cc2C(=O)N2c3ccc(C)cc3C3CN(C)CCC32)cc1 (stereo not given),"inconclusive [inhibitor, partial curve]",
COc1ccc(CCN2C(=O)CC(NNC(=O)c3cccc(O)c3)C2=O)cc1 (stereo not given),"inconclusive [inhibitor, full curve, poor fit]",
O=C(O)c1cc(NC(=O)c2ccc3c(c2)C(=O)N(Cc2cccnc2)C3=O)cc(C(=O)O)c1,inactive,
Cc1ccc(NS(=O)(=O)c2ccc(C(=O)N3CCCCCC3)cc2)cc1,,inactive: -8% [at 11.6 µM]
O=C(CSc1nc2sccc2c(=O)[nH]1)N1CCN(c2ccccc2)CC1,inactive,
Cc1cc(C(=O)COc2ccc(C#N)cc2)c(C)n1CC1CCCO1 (stereo not given),"inconclusive [inhibitor, single point]",
CC[C@H]1CC2CN3CCc4c([nH]c5ccccc45)C(C(=O)OC)(C2)C13 (stereo not given in full),"inconclusive [inhibitor, single point]",
CC1(C)Cc2c(C#N)c(N3CCN(C(=O)c4ccco4)CC3)nc(-c3ccco3)c2CS1,"inconclusive [inhibitor, partial curve]",
CCC(C(=O)Oc1c(C(C)C)cccc1C(C)C)c1ccccc1 (stereo not given),inactive,
CC1(OC(=O)c2cccs2)C(=O)C=C2C=C3CCCN3C=C2C1=O (stereo not given),"inconclusive [inhibitor, partial curve]",
CCOC(=O)c1c(C)oc2c1c(CN1CCN(C(=O)OCC)CC1)c(O)c1ccccc12,"inconclusive [inhibitor, partial curve]",
COC(=O)C1=C(c2ccccc2OCc2ccccc2)C[C@@H]2CC[C@H]1N2C(=O)NCc1ccc(N(C)C)cc1,"inconclusive [inhibitor, single point]",

Structure (SMILES),Potency,"activity change, negative = inhibition"
Cc1ccc(OCC(=O)Nc2cc(S(=O)(=O)N3CCCCC3)ccc2N2CCN(C)CC2)c(C)c1,"inconclusive [inhibitor, single point]",
CC(C(=O)Nc1ccncc1)(c1ccccc1)c1ccccc1,inactive,
Cc1nn(Cc2ccc(F)cc2)c(Cl)c1/C=N/NC(=O)c1ccccc1,inactive,
COc1cc(-c2nc(-c3ccccc3)c(-c3cccs3)[nH]2)cc(OC)c1O,"inconclusive [inhibitor, full curve, poor fit]",
COCCn1c(SCC(=O)N2CC(=O)Nc3ccccc32)nc2ccccc21,,inactive: -0.439% [at 11.6 µM]
Cc1cccc(-n2cnc(C(=O)NC3CCCCCC3)c2)n1,inactive,
CCN(CC)CCN(C(=O)/C=C/c1cccs1)c1nc2ccc(C)cc2s1,"inconclusive [inhibitor, single point]",
COc1ccc(CNC(=O)c2nnn(CC(=O)Nc3cc(C)cc(C)c3)c2N)cc1,"inconclusive [inhibitor, single point]",
O=C(CN1CCN(Cc2ccccc2)CC1)Nc1ccc2c(c1)CCC2,"inconclusive [inhibitor, partial curve]",
COc1ccccc1N=Nc1ccc(N)c(C)c1,"inconclusive [inhibitor, partial curve, poor fit]",
COc1cccc(-c2c[nH]c(=O)[nH]c2=O)c1,"inconclusive [inhibitor, single point]",
COc1ccccc1N1CCN(/N=C/c2c(C)nn(-c3ccccc3)c2C)CC1,"inconclusive [inhibitor, partial curve]",
COC(=O)C1=C(c2ccc(C(C)=O)cc2)C[C@@H]2CC[C@H]1N2C(=O)N1CCC(C)CC1,inactive,
COc1ccc(C2c3[nH]c4ccccc4c3CCN2Cc2cccn2-c2ncccn2)cc1C (stereo not given),"inconclusive [inhibitor, single point]",
CC(C)N(C(=O)[C@H]1C[C@H](CC(=O)NCCC2=CCCCC2)C(=O)N2CCc3c([nH]c4cc(-c5ccco5)ccc34)[C@]12C)C(C)C,"inconclusive [inhibitor, single point]",
O=C(NCCSc1ccccn1)c1ccc(Cl)cc1,inactive,
CCCn1c(NC(=O)C2CCN(S(=O)(=O)c3cccs3)CC2)nc2ccccc21,inactive,
Cc1nc2ccsc2c(=O)n1-c1ccc(Cl)cc1,"inconclusive [inhibitor, single point]",
NC(=O)c1ccc(NC(=O)CSc2nnc(-c3ccccn3)n2N)cc1,"inconclusive [inhibitor, partial curve]",
CN1CCN(S(=O)(=O)c2ccc(N(C)Cc3ccc(OC(F)F)cc3)c([N+](=O)[O-])c2)CC1,"inconclusive [inhibitor, partial curve]",
Clc1ccc(CSc2snnc2-c2ccccc2)c(Cl)c1,inactive,
O=C(Nc1ccc(NC(=O)c2ccc([N+](=O)[O-])cc2[N+](=O)[O-])cc1)c1ccco1,"inconclusive [inhibitor, full curve, poor fit]",
